Experimental findings from patent US20070036750A1 (SCHERING, published 2007) are described below.

Assay [1] concerns the target CCR2 receptor of THP-1 human monocytic cells (human, UniProt P41597 1-374). Description: cell-based or functional assay.
The target in assay [2] is T1, mouse CCR2 (full-length, Genbank Accession No. NM-009915) on membranes of Ba/F3-mCCR2 cells (mouse, UniProt P51683 1-373).
T1 construct: whole, on cells
Description: competition with 30 pM radioiodinated human MCP1, SPA, Ba/F3-mCCR2 cell membranes.

T1 sequence (P51683 whole entry): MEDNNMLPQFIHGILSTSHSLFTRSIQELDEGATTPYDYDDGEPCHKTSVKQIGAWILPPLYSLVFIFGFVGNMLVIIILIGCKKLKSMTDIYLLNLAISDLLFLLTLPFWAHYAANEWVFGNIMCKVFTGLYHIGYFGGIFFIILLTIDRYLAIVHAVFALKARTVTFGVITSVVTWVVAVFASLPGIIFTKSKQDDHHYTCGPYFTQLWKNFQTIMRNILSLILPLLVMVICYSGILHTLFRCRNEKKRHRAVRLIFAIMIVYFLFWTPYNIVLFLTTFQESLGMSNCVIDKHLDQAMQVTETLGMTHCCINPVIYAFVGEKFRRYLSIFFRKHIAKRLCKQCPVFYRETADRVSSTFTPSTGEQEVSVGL
Chain of UniProt P41597 (P41597 whole entry): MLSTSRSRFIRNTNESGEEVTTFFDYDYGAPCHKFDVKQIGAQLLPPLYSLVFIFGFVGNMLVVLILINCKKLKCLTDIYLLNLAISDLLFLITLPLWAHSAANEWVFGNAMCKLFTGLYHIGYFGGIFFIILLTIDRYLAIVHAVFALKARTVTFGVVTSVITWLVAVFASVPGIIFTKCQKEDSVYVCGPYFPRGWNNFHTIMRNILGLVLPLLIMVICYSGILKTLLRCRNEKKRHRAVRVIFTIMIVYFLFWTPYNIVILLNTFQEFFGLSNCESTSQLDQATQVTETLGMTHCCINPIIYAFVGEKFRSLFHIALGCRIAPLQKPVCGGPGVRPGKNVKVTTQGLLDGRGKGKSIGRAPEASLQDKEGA

B1: hMCP1-mIg (NH2-human MCP1-Mouse Ig Heavy chain γ1 (hinge-CH2-CH3)-COOH) (Fc fusion)
chain: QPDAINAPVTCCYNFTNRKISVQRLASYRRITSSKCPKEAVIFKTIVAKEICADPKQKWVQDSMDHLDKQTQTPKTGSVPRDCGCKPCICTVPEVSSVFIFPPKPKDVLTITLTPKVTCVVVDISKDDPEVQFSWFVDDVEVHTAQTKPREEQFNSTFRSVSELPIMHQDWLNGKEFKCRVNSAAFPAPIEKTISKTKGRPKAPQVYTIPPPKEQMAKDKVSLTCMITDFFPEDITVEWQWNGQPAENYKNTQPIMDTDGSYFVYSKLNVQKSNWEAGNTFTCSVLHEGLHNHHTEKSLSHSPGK
notes: also called hMCP1-mlg; human MCP1-mIg
As to B1, in assay [1], the “EC50, THP-1 cell migration (chemotaxis)” value was around 0.5 nM. Moreover, in assay [2], the half-inhibitory concentration (IC50) was determined as 0.35 nM and the Ki was 0.138 nM.
